{
  "source": "paper PMC4336329",
  "about": "(PLoS ONE, 2015)",
  "note": "In all, about 310,000 compounds went through this assay and about 14,000 (4.5%) showed an effect of 50% or more. The effect is printed as a negative number. The list shows a part of the results.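 Note: peak tail current of the secondary pulse compared with the same well before compound.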",
  "data": [
    {"target": "human ether-à-go-go-related gene (hERG) potassium channel (human, UniProt Q12809)", "sequence (Q12809 whole entry, looked up)": "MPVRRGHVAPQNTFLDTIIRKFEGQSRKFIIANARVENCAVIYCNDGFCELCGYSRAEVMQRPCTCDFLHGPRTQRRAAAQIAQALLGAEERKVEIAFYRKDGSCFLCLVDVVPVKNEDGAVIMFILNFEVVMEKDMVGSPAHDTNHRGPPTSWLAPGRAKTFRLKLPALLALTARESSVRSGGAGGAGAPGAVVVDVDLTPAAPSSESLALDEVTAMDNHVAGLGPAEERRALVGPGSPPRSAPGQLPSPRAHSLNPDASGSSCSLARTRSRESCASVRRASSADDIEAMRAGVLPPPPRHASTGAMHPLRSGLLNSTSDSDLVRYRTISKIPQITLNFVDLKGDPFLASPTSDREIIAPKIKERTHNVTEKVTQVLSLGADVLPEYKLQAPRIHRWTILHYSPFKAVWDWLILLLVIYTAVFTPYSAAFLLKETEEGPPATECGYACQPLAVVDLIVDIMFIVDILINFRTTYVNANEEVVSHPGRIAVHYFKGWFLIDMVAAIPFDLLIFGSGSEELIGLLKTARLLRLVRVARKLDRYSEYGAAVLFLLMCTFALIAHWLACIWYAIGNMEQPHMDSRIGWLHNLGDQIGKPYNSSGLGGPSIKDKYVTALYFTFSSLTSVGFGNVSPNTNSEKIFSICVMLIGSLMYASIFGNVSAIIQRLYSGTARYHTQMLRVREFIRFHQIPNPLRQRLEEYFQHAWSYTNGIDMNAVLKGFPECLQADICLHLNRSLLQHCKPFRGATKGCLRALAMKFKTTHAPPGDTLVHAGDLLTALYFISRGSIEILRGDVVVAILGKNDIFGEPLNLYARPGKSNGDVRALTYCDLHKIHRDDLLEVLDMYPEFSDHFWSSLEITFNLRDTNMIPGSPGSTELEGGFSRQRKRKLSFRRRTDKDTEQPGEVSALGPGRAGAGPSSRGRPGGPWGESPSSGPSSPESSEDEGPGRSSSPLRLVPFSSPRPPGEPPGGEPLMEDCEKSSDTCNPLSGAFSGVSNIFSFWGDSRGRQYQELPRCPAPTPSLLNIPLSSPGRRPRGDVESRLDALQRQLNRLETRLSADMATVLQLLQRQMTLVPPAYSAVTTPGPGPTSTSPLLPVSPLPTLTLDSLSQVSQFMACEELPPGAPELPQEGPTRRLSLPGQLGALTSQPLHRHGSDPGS", "assay": "primary screen, population patch clamp on CHO cells stably expressing hERG", "units": {"hERG current change (%, negative = inhibition) at 10uM": "%"}, "values": [
      {"smiles": "COC(=O)C1=CN(C2CCCCC2)C=C(C(=O)OC)C1c1ccc2c(c1)OCO2", "hERG current change (%, negative = inhibition) at 10uM": 0.434},
      {"smiles": "Cc1ccc(CNC(=O)CNC(=S)N(Cc2ccccc2)Cc2cccnc2)cc1", "hERG current change (%, negative = inhibition) at 10uM": -19.8},
      {"smiles": "O=C1CN(C(=O)COc2ccccc2)c2ccccc2N1", "hERG current change (%, negative = inhibition) at 10uM": 9.67},
      {"smiles": "COC(=O)c1ccc(N2C(=O)c3ccc(OC)c(OC)c3C2=O)cc1", "hERG current change (%, negative = inhibition) at 10uM": -8.57},
      {"smiles": "COc1cccc(C(=O)Nc2ccc3c(c2)C(=O)N(CCC(=O)O)C3=O)c1", "hERG current change (%, negative = inhibition) at 10uM": 5.74},
      {"smiles": "O=[N+]([O-])c1ccc(N2CCN(c3ccc(O)cc3)CC2)cn1", "hERG current change (%, negative = inhibition) at 10uM": -52.8},
      {"smiles": "COC(=O)c1ccc(-n2ccnc2)cc1", "hERG current change (%, negative = inhibition) at 10uM": 22.3},
      {"smiles": "COC(=O)c1cc(S(=O)(=O)NCc2ccccc2OC)cn1C", "hERG current change (%, negative = inhibition) at 10uM": 4.66},
      {"smiles": "CC(Sc1nc2ccccc2[nH]1)C(=O)O", "note": "(stereo not drawn)", "hERG current change (%, negative = inhibition) at 10uM": 5.82},
      {"smiles": "O=[N+]([O-])c1ccc(S(=O)(=O)Nc2nnc(C3CCCCC3)s2)cc1", "hERG current change (%, negative = inhibition) at 10uM": 0.946},
      {"smiles": "CC(C)n1c(COc2ccccc2)nc2ccccc21", "hERG current change (%, negative = inhibition) at 10uM": 9.63},
      {"smiles": "Cc1ccc2nc(SCC(=O)Nc3cc(C)on3)c(C)cc2c1", "hERG current change (%, negative = inhibition) at 10uM": 10.7},
      {"smiles": "O=C(Cn1cnc2ccccc2c1=O)NCC(=O)N1CCOCC1", "hERG current change (%, negative = inhibition) at 10uM": 4.05},
      {"smiles": "CCCCCn1c(=NC(C)=O)c(C#N)cc2c(=O)n3ccccc3nc21", "hERG current change (%, negative = inhibition) at 10uM": -43},
      {"smiles": "COc1ccc(S(=O)(=O)N(C)CC(=O)NCc2ccco2)cc1OC", "hERG current change (%, negative = inhibition) at 10uM": 15.8},
      {"smiles": "CCCn1c(C(C)Nc2nc(-c3ccc(C)cc3)cs2)nc2cc(Cl)c(N3CCCCC3)cc21", "note": "(stereo not drawn)", "hERG current change (%, negative = inhibition) at 10uM": 21.8},
      {"smiles": "CCC(C)(C)C1CCC2(CC1)NC(=S)N(c1ccccc1)N2", "note": "(stereo not drawn)", "hERG current change (%, negative = inhibition) at 10uM": 19.4},
      {"smiles": "COC(=O)c1ccc2c(=O)n(CCN3CCOCC3)c(SCC(=O)Nc3ccccc3Cl)nc2c1", "hERG current change (%, negative = inhibition) at 10uM": -33.4},
      {"smiles": "COc1cccc(-c2nc(CS(=O)(=O)CC(=O)NCCCN3CC(C)CC(C)C3)c(C)o2)c1", "note": "(stereo not drawn)", "hERG current change (%, negative = inhibition) at 10uM": -35.2},
      {"smiles": "COc1ccc(C(=O)NCCN2CCN(C(=O)c3ccc(OC)cc3)CC2)cc1", "hERG current change (%, negative = inhibition) at 10uM": -75.2},
      {"smiles": "CC(C)(C)NNC(=S)Nc1cccc(F)c1", "hERG current change (%, negative = inhibition) at 10uM": 10.8},
      {"smiles": "CCOc1ccccc1NC(=O)Cn1cnc2c(nnn2-c2cccc(OC)c2)c1=O", "hERG current change (%, negative = inhibition) at 10uM": 4.03},
      {"smiles": "CCNC(=O)CC1C(=O)N(c2ccc(C)cc2)C(=O)N1CCC(C)C", "note": "(stereo not drawn)", "hERG current change (%, negative = inhibition) at 10uM": -2.19},
      {"smiles": "CCN(CC)N=Nc1ccc(S(=O)(=O)[N-]c2nc(C)cc(C)n2)cc1.[K+]", "hERG current change (%, negative = inhibition) at 10uM": -17.2},
      {"smiles": "Cc1cc(=O)oc2cc(OC(C)C(=O)NCCCN3CCCC3=O)c(Cl)cc12", "note": "(stereo not drawn)", "hERG current change (%, negative = inhibition) at 10uM": 2.72},
      {"smiles": "CCn1nc(NC(=O)c2ccccn2)c2cc3cccc(C)c3nc21", "hERG current change (%, negative = inhibition) at 10uM": -2.45},
      {"smiles": "Cc1cc(OC(C)C(=O)NCCN2CCOCC2)c2c(C)c(C)c(=O)oc2c1", "note": "(stereo not drawn)", "hERG current change (%, negative = inhibition) at 10uM": 9.89},
      {"smiles": "O=C(CCNS(=O)(=O)c1ccc(Cl)cc1)N1CCCC1", "hERG current change (%, negative = inhibition) at 10uM": 17.1},
      {"smiles": "COc1ccc(C(=O)NCCS(=O)(=O)N(C)Cc2ccccc2)cc1", "hERG current change (%, negative = inhibition) at 10uM": 0.987},
      {"smiles": "Cc1cccc(CC2CC(=O)N(c3ncccn3)C2=O)c1", "note": "(stereo not drawn)", "hERG current change (%, negative = inhibition) at 10uM": 16},
      {"smiles": "Cc1sc2nc(CN3CCC(C)CC3)nc(Cl)c2c1C", "hERG current change (%, negative = inhibition) at 10uM": -17.8},
      {"smiles": "Cc1cccc(CC(=O)N2CCN=C2SCc2ccc([N+](=O)[O-])cc2)c1", "hERG current change (%, negative = inhibition) at 10uM": -11.8},
      {"smiles": "CNC(=O)CN1C(=O)c2cccc3cccc1c23", "hERG current change (%, negative = inhibition) at 10uM": 10.3},
      {"smiles": "Cc1nn(-c2cc(C(F)(F)F)ccc2Cl)c2nc(C(Cl)(Cl)Cl)[nH]c(=O)c12", "hERG current change (%, negative = inhibition) at 10uM": 4.05},
      {"smiles": "COc1ccc(NC(=O)CN2C(=O)CSc3ncccc32)cc1", "hERG current change (%, negative = inhibition) at 10uM": -2.9},
      {"smiles": "O=C(NCCCn1ccnc1)c1cc(-c2cccc(O)c2)on1", "hERG current change (%, negative = inhibition) at 10uM": -11.9},
      {"smiles": "CN1C(=O)/C(=N/OC(=O)c2ccccc2)c2ccccc21", "hERG current change (%, negative = inhibition) at 10uM": -9.6},
      {"smiles": "CC(C)n1c(SC2C(=O)CC(C)(C)CC2=O)nc2c1c(=O)n(C)c(=O)n2C", "hERG current change (%, negative = inhibition) at 10uM": 21.5},
      {"smiles": "CCCCN(CC)Cc1ccc(CNC(=S)Nc2ccc(C)cc2Cl)o1", "hERG current change (%, negative = inhibition) at 10uM": -32.1},
      {"smiles": "CCCC1(c2ccccc2)NC(=O)N(CC(=O)Nc2cc(S(=O)(=O)N3CCOCC3)ccc2Cl)C1=O", "note": "(stereo not drawn)", "hERG current change (%, negative = inhibition) at 10uM": -22.6},
      {"smiles": "Cc1cc(NC(=O)CSc2nc3c(c(=O)n2-c2ccccc2)SC(C)C3)no1", "note": "(stereo not drawn)", "hERG current change (%, negative = inhibition) at 10uM": -17.5},
      {"smiles": "COc1ccc(CN2CCN(Cc3ccccc3C(F)(F)F)CC2)c(OC)c1.O=C(O)C(=O)O", "hERG current change (%, negative = inhibition) at 10uM": -74.2},
      {"smiles": "CC1=CC(c2ccccc2)n2nc(N)nc2N1", "note": "(stereo not drawn)", "hERG current change (%, negative = inhibition) at 10uM": 1.8},
      {"smiles": "CCOC(=O)c1nc2ccccc2c(=O)[nH]1", "hERG current change (%, negative = inhibition) at 10uM": 17.6},
      {"smiles": "COc1cccc(C(c2c(N)[nH]c(=S)[nH]c2=O)c2c(N)[nH]c(=S)[nH]c2=O)c1", "hERG current change (%, negative = inhibition) at 10uM": 22.6}
    ]}
  ]
}
